# Data from publication PMC4336329 (PLoS ONE, 2015).
# Screen size: about 310,000 compounds; about 14,000 (4.5%) showed an effect of 50% or more. The effect is printed as a negative number. Some of the results follow.
# Biological target: human ether-à-go-go-related gene (hERG) potassium channel (human, UniProt Q12809)
# Test: primary screen, population patch clamp on CHO cells stably expressing hERG
# 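Further: peak tail current of the secondary pulse compared with the same well before compound.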
# Chain of human ether-à-go-go-related gene (hERG) potassium channel (Q12809 whole entry, looked up): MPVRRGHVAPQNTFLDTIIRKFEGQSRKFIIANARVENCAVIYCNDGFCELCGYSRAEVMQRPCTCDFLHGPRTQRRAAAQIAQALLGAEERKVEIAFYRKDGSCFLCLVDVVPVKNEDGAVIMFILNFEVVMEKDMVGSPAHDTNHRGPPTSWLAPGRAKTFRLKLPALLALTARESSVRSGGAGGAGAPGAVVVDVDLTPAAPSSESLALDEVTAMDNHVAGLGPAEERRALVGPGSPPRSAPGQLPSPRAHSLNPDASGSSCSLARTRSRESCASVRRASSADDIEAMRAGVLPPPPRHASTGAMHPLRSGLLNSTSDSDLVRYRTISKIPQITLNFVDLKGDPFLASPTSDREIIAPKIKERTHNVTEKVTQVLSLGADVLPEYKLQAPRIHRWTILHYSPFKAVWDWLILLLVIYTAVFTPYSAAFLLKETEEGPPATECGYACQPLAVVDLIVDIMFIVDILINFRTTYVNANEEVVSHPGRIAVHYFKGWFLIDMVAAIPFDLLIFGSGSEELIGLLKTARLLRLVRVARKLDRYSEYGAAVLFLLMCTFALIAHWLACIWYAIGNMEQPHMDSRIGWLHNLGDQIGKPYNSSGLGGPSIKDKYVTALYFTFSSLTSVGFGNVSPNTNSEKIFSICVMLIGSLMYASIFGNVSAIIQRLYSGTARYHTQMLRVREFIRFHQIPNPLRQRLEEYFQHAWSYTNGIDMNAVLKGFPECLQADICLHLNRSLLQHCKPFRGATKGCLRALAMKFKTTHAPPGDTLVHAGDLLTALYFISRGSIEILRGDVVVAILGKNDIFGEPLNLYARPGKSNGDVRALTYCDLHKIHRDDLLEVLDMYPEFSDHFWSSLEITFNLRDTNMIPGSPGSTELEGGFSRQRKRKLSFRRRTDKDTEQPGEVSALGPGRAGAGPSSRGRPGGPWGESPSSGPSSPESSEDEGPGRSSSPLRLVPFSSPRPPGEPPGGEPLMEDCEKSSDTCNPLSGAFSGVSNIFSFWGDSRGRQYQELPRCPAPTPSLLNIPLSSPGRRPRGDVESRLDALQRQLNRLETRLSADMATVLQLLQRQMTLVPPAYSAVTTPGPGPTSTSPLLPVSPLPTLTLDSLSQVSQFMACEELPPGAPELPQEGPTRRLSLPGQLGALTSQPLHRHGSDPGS
row,Compound,"hERG current change (%, negative = inhibition) at 10uM [%]"
1,Cc1ccccc1NP(=O)(Oc1ccccc1F)Oc1ccccc1F,13.3
2,CCC(C)(C)C1CCc2[nH]nc(C(=O)NCCCNC(=O)OC(C)(C)C)c2C1 (stereo not shown),14.5
3,CCN1CCN(c2ccc(S(=O)(=O)N3CCCCC3)cc2NC(=O)/C=C/c2ccc(F)cc2)CC1,-48.1
4,CCCOc1ccc(C(F)(F)F)cc1NC(=O)c1cc(C)on1,-3.07
5,Cc1cc(OCC(=O)N(C)Cc2ccccc2)ccc1Br,5.12
6,COC(=O)c1ccccc1C(=O)N(c1ccccc1)c1ccccc1,3.01
7,Cc1cc(C)n(-c2cc(N3CCN(C(=O)c4cccc(F)c4)CC3)ccc2[N+](=O)[O-])n1,-67.9
8,O=C(O)C1CC=CCC1C(=O)Nc1cccc([N+](=O)[O-])c1 (stereo not shown),28.3
9,CCC(C)[C@H](NC(=O)OC(C)(C)C)C(=O)N/N=C/c1cccc2nccnc12 (stereo partly shown),-9.82
10,Cc1cc(C)c(C(=O)N2CCCC(CNC(=O)C3(c4ccc(Cl)cc4)CC3)C2)c(=O)[nH]1 (stereo not shown),6.58
11,CSc1nc(Oc2ccc3ccccc3c2)c2ccccc2n1,20.4
12,COC/C=C/C1=CC2=CC(=O)C(C)(OC(=O)c3cnc4ccccc4n3)C(=O)C2=CN1c1ccc(CO)cc1 (stereo not shown),-15.9
13,COc1ccc(-c2nn(CCC#N)cc2C=C(C#N)C#N)cc1,-17.9
14,C=CCSC1=C(C#N)C(c2ccc(C(C)C)cc2)CC(=O)N1 (stereo not shown),-8.13
15,Cc1cc(NC(=O)c2cccc(COc3ccc(Br)cc3)c2)no1,3.2
16,COC(=O)c1ccc(NC(=S)Nc2ccc3ccccc3c2)cc1,26.9
17,CC(Sc1nc2cc([N+](=O)[O-])ccc2n1-c1ccc(F)cc1)C(=O)NCc1ccc2c(c1)OCO2 (stereo not shown),5.65
18,O=C(Nc1cccc(OC(=O)c2ccc(Br)o2)c1)c1ccccc1,10.6
19,Cc1cc(SCC(=O)N2CCC(c3noc4ccc(F)cc34)CC2)nc2ccccc12,-4.47
20,COC(=O)Cc1c(C)nc2nc(-c3ccc(Cl)cc3)[nH]n2c1=O,-0.182
21,O=C(N/N=C/c1c(O)ccc2ccccc12)c1ccc[n+](CCO)c1.[Cl-],1.26
22,CC1(C)CC(=O)c2cc(NC(=O)c3ccccc3)c(=O)oc2C1,19.6

row,Compound,"hERG current change (%, negative = inhibition) at 10uM [%]"
1,CCOC(=O)N1CCN(C(=O)CCC2CCCC2)CC1,9.89
2,CC(=O)Nc1ccc(C(=O)OC2CCCCC2=O)cc1 (stereo not shown),11.1
3,S=C(NNc1ccnc2cc(Cl)ccc12)Nc1ccccc1Cl,7.3
4,CCOc1ccc(C(O)c2nccn2C)cc1 (stereo not shown),10.7
5,COc1ccc(CC(=O)Nc2ccc(OC(C)=O)cc2C(=O)O)cc1,-3.45
6,Cc1ccc(S(=O)(=O)N2CC(C)N(C(=O)N3CCOCC3)C2)cc1 (stereo not shown),19.4
7,COc1ccc(OC)c(NC(=O)CSc2nnc(C)n2Cc2ccccc2)c1,-23.5
8,O=C(C[n+]1ccccc1)c1ccc(NC(=O)c2ccccc2)cc1.[I-],8.42
9,CC1(C)CC(=O)C2=C(C1)N(Cc1ccco1)C(=O)C2(NC(=O)C1CCCCC1)C(F)(F)F (stereo not shown),1.87
10,c1csc(C(c2nnnn2C2CCCCC2)N2CCCC3(CCCCC3)C2)c1 (stereo not shown),22.5
11,Cc1cc(C)n2ncnc2n1,2.2
12,CCCN1CCN(C(=O)c2cc(COc3ccc(F)cc3F)on2)CC1,-12.3
13,CCCCN(CC)Cc1ccc(CNC(=O)Nc2ccc(Cl)cc2)o1,-61.9
14,CCOc1ccc(C(=O)NC(Cc2ccccc2)C(=O)OC)cc1 (stereo not shown),-5.71
15,CC(=O)NCCOc1nc(N(C)C)nc(N(C)C)n1,22.5
16,Cc1c(CC(=O)O)c(=O)oc2cc3c(cc12)CCC(C)(C)O3,19.1
17,CCOC(=O)C(=CNc1ccc(N2CCOCC2)cc1)C(=O)OCC,-12.3
18,Nn1c(CN2CCCCC2)nc2ccccc2c1=O,-6.71
19,CCOC(=O)C1CN(S(=O)(=O)c2ccc(C)cc2)C1,5.5
20,Cc1ccc(OCC(=O)NCCNC(=O)COc2ccc(C)cc2)cc1,9.34
21,COc1cccc(NC(=O)NNC(=O)COc2ccc3ccccc3c2)c1,-0.765
22,Cc1ccc2oc(=O)n(CC(=O)N3CCOCC3)c2c1,10

row,Compound,"hERG current change (%, negative = inhibition) at 10uM [%]"
1,COc1ccc2oc(C(=O)OCC(=O)Nc3ccc(N4CCOCC4)cc3)c(C)c2c1,8.36
2,Cc1ccc(/C=N/N2C(=S)SC(C)(C)C2N(O)C(=O)Nc2ccc([N+](=O)[O-])cc2)cc1 (stereo not shown),4.55
3,CCc1cc(=O)oc2c3c(cc(OCC(=O)NCCCOC)c12)OC(C)(C)CC3,8.45
4,Cc1nc(N2CCN(C(=O)c3ccc(Cl)cc3)CC2)c(C#N)c2c1COC(C)(C)C2,-60.8
5,CCOc1ccc(-c2nnc(-c3ccc(OC)cc3)o2)cc1,3.17
6,COc1ccc(-n2cccc2C=O)cc1OC,24.6
7,Cc1nnc(SCC(=O)NC(C)(C)C)n1C1CCCCC1,0.248
8,CCOc1ccc(N(C(=O)c2cnccn2)C(C(=O)NC2CCCCC2)c2ccc(O)cc2)cc1 (stereo not shown),10.4
9,Cc1ccc(C(=O)NCCN(C)C)cc1C,7.22
10,O=C(O)COc1ccccc1/C=N/NC(=O)CN1CCN(Cc2ccc(Cl)cc2)CC1,10.7
11,CN(Cc1ccccc1)S(=O)(=O)c1ccc(OCC(=O)NCc2ccccn2)cc1,-32.6
12,CC1(c2ccccc2)NCCN2C(=O)CSC21.Cl (stereo not shown),20.5
13,CCCCCC(=O)Nc1cccc(C2=NOC3(C2)C[C@H](C(N)=O)N(C(=O)CC)C3)c1 (stereo partly shown),6.18
14,CSc1ccccc1NC(=O)c1cc2ncc(Br)cn2n1,-0.249
15,COc1ccccc1CNC(=O)C/C(C)=N/NC(=O)Cc1ccc(Cl)cc1,-2.38
16,CCOC(=O)c1ccc(NC(=O)Cn2nnc(-c3ccc(C)cc3)n2)cc1,6.15
17,CNC(=O)C(=O)NCC1OCCN1S(=O)(=O)c1ccc2c(c1)OCCO2 (stereo not shown),5.89
18,COc1cnc(SCc2ccc(Cl)c(Cl)c2)nc1Cl,-4.29
19,COc1ccc(-c2nnc(SCC(=O)NC3CCCc4ccccc43)n2N)cc1 (stereo not shown),-15.8
20,CCC1CCCCN1C(=O)Cn1c(=O)n(CCCC(=O)NCc2ccco2)c(=O)c2sccc21 (stereo not shown),2
21,O=C(NCCSc1ncc(-c2ccc(F)cc2)[nH]1)c1ccc2c(c1)OCO2,-26.9
22,O=C1OCCC1Sc1nc2ccccc2[nH]1 (stereo not shown),9.97

row,Compound,"hERG current change (%, negative = inhibition) at 10uM [%]"
1,Cc1cccc(NC(=S)NC23CN4CN(CN(C4)C2)C3)c1C,16.9
2,CSCCC(NC(=O)c1cc(S(=O)(=O)N2CCOCC2)ccc1F)c1nc2ccccc2[nH]1 (stereo not shown),-5.27
3,Cc1ccccc1NC(=O)c1cc(S(=O)(=O)Nc2cccc(C(=O)O)c2)ccc1Cl,39
4,COc1ccccc1N1CCN(C(=O)Cn2c(=O)[nH]c3ccsc3c2=O)CC1,-1.18
5,CCOc1nc(NCCO)nc(Nc2ccc([N+](=O)[O-])cc2)n1,-9.66
6,COc1ccc(S(=O)(=O)N2CCOC2CNC(=O)C(=O)NCCc2ccccc2)cc1OC (stereo not shown),-1.05
7,CCOC(=O)C1CCN(S(=O)(=O)c2ccc(CN3C(=O)c4cccnc4C3=O)cc2)CC1,-9.61
8,Cc1cnc(C(=O)OC(C(=O)Nc2cc(C(F)(F)F)ccc2Cl)c2ccccc2)cn1 (stereo not shown),-41.8
9,COc1ccc(Br)cc1S(=O)(=O)N1CCN=C1c1ccccc1,-0.359
10,CC(Sc1ncnc2ccccc12)C(=O)Nc1ccc2c(c1)OCO2 (stereo not shown),-14
11,CCOC(=O)CNC(=O)c1cc(C)oc1C,-0.269
12,O=C(COc1cccc2cccnc12)N/N=C/c1ccc(O)cc1,2.96
13,O=C(NCc1cccc(Cl)c1)C1CCC(=O)N(CCN2CCOCC2)C1 (stereo not shown),20.5
14,CC(C)=C1C2C=CC1C1C(=O)N(c3ccc4c(c3)OCO4)C(=O)C21 (stereo not shown),17.7
15,NC(=O)c1ccc(NC(=O)C#Cc2ccccc2)cc1,13
16,CCOc1ccccc1NC(=O)NCCC1=CCCCC1,-43.7
17,O=C(Nc1cccc(Cl)c1)c1ccc(F)c(S(=O)(=O)NCc2cccs2)c1,-15.9
18,CCc1ccc(NC(=O)c2noc3c2CCc2ccccc2-3)cc1,-0.6
19,Cc1ccc(OCCN2C(=O)C(=O)c3cccc(C)c32)cc1,-0.255
20,O=C(COC(=O)Cc1cccs1)Nc1cccc(S(=O)(=O)N2CCOCC2)c1,0.0981
21,Cc1nn(CC(=O)N2CC(=O)Nc3ccccc32)c(C)c1[N+](=O)[O-],26.7
22,Cc1cccc(CSc2cn(CC(=O)N3CCOCC3)c3ccccc23)c1,-25.8
